In PubChem BioAssay AID1508624 (National Center for Advancing Translational Sciences (NCATS), 2021):
The campaign covered roughly 48,000 compounds. About 120 (0.25%) were called active. Roughly 4% stayed inconclusive and do not appear here. Calls follow the shape of the dose curve; as a rule, active = well fitted activation curve with a large enough effect; inconclusive = small, poorly fitted or top-dose-only effect, or another doubt; inactive = no such curve, though single readings can be large or run the other way. The list shows a part of the results.

test: Primary qHTS for Identification of Small Molecule Activators of Huntingtin-Antisense Promoter Activity; conditions: HEK293 HTT-AS promoter firefly luciferase reporter, 24 h; series mostly up to 57.5 µM; activity change, positive = activation: at the top concentration; also: nearly all actives have a fitted effect of over 55% in size
Summary of the method: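 HEK293 cells carrying firefly luciferase reporters were seeded at 2,500 per well in Opti-MEM and cultured for 24 h. They were then treated with compounds at up to 57.5 uM final for 24 h at 37 degrees C before Dual-Glo luminescence readout.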

Activity change, positive = activation, inactive:
COc1ccc(-c2nnc(SCC(=O)Oc3c(C)cccc3C)o2)cc1OC 0.843%
Cc1oc(-c2cccc(Cl)c2)nc1CN1CCCC(C(=O)NCc2ccc(F)cc2)C1 (stereo unspecified) -17.6%
CC(C)c1ccc(S(=O)(=O)c2nnn3c2nc(NC2CCCC2)c2sccc23)cc1 -13.3%
Cc1ccc(CSCC(=O)N2CCN(c3ccc(F)cc3)CC2)cc1 -7.52%
Cc1ccc2c(=O)cc(CSc3ccccc3)[nH]c2c1C -4.28%
CC(=O)c1cccc(S(=O)(=O)NCCc2csc3nc(-c4ccc(F)cc4)nn23)c1 -33.4%
Cc1nc(CC(=O)Nc2cccc(C)c2C)cs1 -13.1%
Cc1cccc(N(CC(=O)Nc2ccc(Br)cc2)S(C)(=O)=O)c1C -14%
COc1ccc(C(=O)NCc2ccc3c(c2)CCN3C(=O)c2ccncc2)cc1 -11.3%
COc1ccc(OC)c(NC(=O)c2c(NCc3ccc(C)o3)sc3c2CCC(C)C3)c1 (stereo unspecified) -28.5%
Cc1cc(OC(=O)c2cc(-c3ccc4c(c3)OCCO4)on2)ccc1Cl 0.573%
Cc1ccc(CN2CCCn3nc(C(=O)NCCc4ccc(Cl)cc4)cc3C2=O)cc1 -40.1%
COc1ccc2c(c1)-c1nc(NC(=O)c3cc(Cl)ccc3OC)sc1CC2 -10.7%
COc1ccccc1CNC(=O)CCn1c(=O)c2ccccc2n(CC(=O)Nc2ccc(C)cc2C)c1=O -12.3%
CN1c2ccccc2-c2nc(SCC(=O)Nc3ccccc3C(F)(F)F)ncc2S1(=O)=O -7.46%
Cc1ccc(CSc2nc3ccc(NC(=O)C(C)C)cc3s2)cc1 -19.5%
CCN(Cc1ccccc1)C(=O)Cn1c(=O)n(Cc2ccccc2)c(=O)c2c1c1cc(OC)ccc1n2C -10.5%
COc1ccc(C(CC(=O)Nc2ccc(C)c(C)c2)N2Cc3ccccc3C2=O)cc1OC (stereo unspecified) -36.3%
O=C(NCC(c1cccnc1)N1CCN(Cc2ccccc2)CC1)C(=O)Nc1ccc(Cl)cc1 (stereo unspecified) -31.7%
Cc1cc(OC(C)C(=O)N2CCC(c3nc4ccccc4o3)CC2)ccc1Cl (stereo unspecified) -41.9%
CC1(C)OC[C@@H](COC(=O)CCc2ccc(OC[C@@H](O)CNCCNC(=O)N3CCOCC3)cc2)O1 -0.948%
COc1ccccc1NC(=O)CSc1ccc(-c2ccccn2)nn1 -5.34%
Cc1ccc(N(C)C(CNS(=O)(=O)c2ccccc2)c2ccccc2)cc1 (stereo unspecified) -21%
CCn1ccc2cc(S(=O)(=O)N3CCCN(C(=O)Nc4cccc(SC)c4)CC3)ccc21 -15.7%
CCCNC(=O)C1CCN(C(=O)N2CC(C)Oc3ccccc32)CC1 (stereo unspecified) 1.3%
Cc1ccc(CNC(=O)C2CCC(CNS(=O)(=O)c3ccc(C)cc3)CC2)cc1 (stereo unspecified) -1.72%
CCCCN(C)S(=O)(=O)c1ccc(NC2=NS(=O)(=O)c3ccccc32)cc1 -29.7%
COc1ccc(-n2ccnc2SCC(=O)Nc2cccc(OC)c2)cc1 -20.1%
Cc1ccc(NC(=O)Cn2cc(C(=O)c3ccco3)c3ccccc32)cc1C -19.2%
CCCCCCNC(=O)c1c[nH]c2ccc(S(=O)(=O)N(C)c3ccc(C(C)C)cc3)cc2c1=O -7.13%
N#C/C(=C/c1ccccc1Cl)c1nc2ccccc2c(=O)[nH]1 -9.55%
COc1ccc(N2CCN(C3(c4ccccc4)C(=O)c4ccccc4C3=O)CC2)cc1 -20.7%
Cc1ccc(Cl)cc1N(C)C(=O)c1cc2c(Cl)nc3ccccc3c2s1 -11.7%
O=C(C1CCC(Cn2c(=O)c3sccc3n(Cc3cccc(F)c3)c2=O)CC1)N1CCOCC1 (stereo unspecified) -25.5%
COc1cccc(OC(=O)CSc2nnc(-c3cccs3)o2)c1 -1.14%
Cc1cc2nn(-c3ccc(F)cc3)nc2cc1NC(=O)c1cccc([N+](=O)[O-])c1C 27.6%
CC(=O)Nc1ccc(Nc2nc3c(S(=O)(=O)c4cc(C)ccc4C)nnn3c3ccsc23)cc1 -7.73%
COC(=O)c1ccc(Nc2nc(-c3ccccc3Cl)nc3ccccc23)cc1 -38.5%
Clc1cccc(-c2nc3ccccn3c2Nc2ccc3c(c2)OCCO3)c1 -19.1%
COc1ccc(N2C(=O)CSC23C(=O)N(CC(=O)Nc2ccccc2F)c2ccccc23)cc1 (stereo unspecified) -16.9%
Cc1[nH]cnc1CN1CCc2c(c3ccccc3n2C)C1=O -4.22%
Cc1cccc(C(=O)Nc2cc3nn(-c4ccc(C(C)C)cc4)nc3cc2C)c1 -0.0457%
Cc1ccc(N(C)S(=O)(=O)c2ccc(-c3coc(C)n3)cc2)cc1 -20.9%
Cc1cccc(-c2noc(-c3ccc(NCc4ccccc4)c([N+](=O)[O-])c3)n2)c1 2.91%
CC1=C(c2ccc(C)c(C)c2)S(=O)(=O)N=C1N1CCC(C(=O)NCc2ccccc2C)CC1 -20.5%
O=C(O)CCc1ccc(NCc2cccc(Oc3ccccc3)c2)cc1 -53.3%
Cc1ccc(NC(=O)CN2C(=O)COc3ccc(S(=O)(=O)N4CCOCC4)cc32)cc1N(C)C -3.5%
COc1ccccc1N1CCN(CCCNC(=O)c2nnc(Cc3ccc(F)cc3Cl)o2)CC1 -29.8%
CCc1nc2ccc(C(=O)N3CCN(c4cc(C)ccc4C)CC3)cc2nc1CC -19.6%
CC1=C(C(N)=O)C(c2cccc(Br)c2)n2nc(SCc3ccccc3Cl)nc2N1 (stereo unspecified) -6.04%
Cc1cc(C)c2oc(-c3ccc(NC(=O)COc4ccccc4C)cc3)nc2c1 18.5%
CCOc1ccc(CCNC(=O)c2cc3sccc3n2CC)cc1OCC -45.4%
Fc1ccc(CSc2nncn3c2cc2occc23)c(Cl)c1 -1.82%
Cc1nn(CC(=O)NCCc2ccccc2)c(=O)c2nn(-c3ccccc3)c(C)c12 7.57%
COc1cc(C2C(C(=O)Nc3ccc(Cl)cc3)=C(C)Nc3nc(SC)nn32)cc(OC)c1OC (stereo unspecified) -11.1%
CC(C)c1ccccc1Cc1cc(C(=O)Nc2ccc(S(=O)(=O)c3ccccc3C(C)(C)C)cc2)c(O)c(O)c1O -36.4%
Cc1ccc(-n2nc3c(N4CCC(C(=O)NC5CCCCC5)CC4)nnc(C)c3c2C)cc1 -12.9%
Cc1cc2oc(C(=O)Nc3ccc(S(=O)(=O)N4CCC(C)CC4)cc3)cc(=O)c2cc1C 18.5%
CC(C)Cc1ccc(S(=O)(=O)NCc2nc3cccnc3n2Cc2ccccc2)cc1 -31.7%
COc1ccc(-n2ncc(C(=O)N3CCN(C(=O)c4ccco4)CC3)c2C2CCN(C(=O)OC(C)(C)C)CC2)cc1 -3.9%
COc1ccc(-c2ccc(CNCCCSc3nnnn3C)o2)cc1Cl -13.3%
Cc1ccc(/C=C/C(=O)N2CCC(c3nc4ccccc4o3)CC2)cc1 -17%
CCOC(=O)Cc1c(C)nc2cc(-c3ccc(C(C)(C)C)cc3)nn2c1C 26.1%
CCc1ccc(NC(=O)C2CCCN2S(=O)(=O)c2ccc3nc(-c4ccccc4)[nH]c3c2)cc1 (stereo unspecified) -31.9%
Cc1ccc(NC(=O)c2c3c(nc4ccccc24)C(=O)N(C2CCCCC2)C3)cc1F 0.752%
Cc1ccccc1NC(=O)CC1NCCNC1=O (stereo unspecified) -2.93%
C=CCc1ccccc1OCc1nc2ccc(C)cc2[nH]1 2.52%
COc1ccc(-n2ncc(C(=O)N3CCN(C4CCCCC4)CC3)c2C2CCN(C(=O)OC(C)(C)C)CC2)cc1 -11.6%
CCOC(=O)c1c(NC(=O)CSc2nc(-c3ccc(OC)cc3)cc(C(F)(F)F)n2)sc(C)c1C 5.14%
Cn1c(=O)n(CC(=O)O)c(=O)c2c1nc1n2CCCN1c1ccc(Cl)cc1 4.72%
CCN(CC)S(=O)(=O)c1ccc2c(c1)c(=O)c(C(=O)NCCc1ccccc1)cn2C 6.22%
COc1ccc(C2CC(=O)c3cnc4c(-c5ccc(F)cc5)c(C)nn4c3C2)cc1OC (stereo unspecified) -2.09%
COc1cc(CN(C(=O)Nc2cccc(Cl)c2)c2ccccn2)cc(OC)c1OC -7.51%
COC(=O)c1nnn(CC(=O)Nc2c(C)cccc2C)c1N -14.6%
Cc1cc2nc3c(=O)[nH]c(=O)nc-3n(C[C@H](O)[C@H](O)[C@H](O)CO)c2cc1C -0.0913% [at 25.1 µM, percent change from vehicle, -100% = no light]
CC(C)Nc1nc2c(S(=O)(=O)c3cccc(Cl)c3)nnn2c2ccsc12 -18.6%
Cc1ccc(C(=O)NCC(c2cccs2)S(=O)(=O)c2ccccc2)cc1C (stereo unspecified) -26.7%
CC(=O)c1cccc(NC(=O)CCn2nc(C)c(S(=O)(=O)N(C)C)c2C)c1 -28%
CC(C)CCNC(=O)c1ccc2nc(CCc3ccccc3)oc2c1 12.1%
CC(C)c1ccc(S(=O)(=O)N2CCN(CC(=O)Nc3ccccc3C(F)(F)F)CC2)cc1 17.3%
CCOC(=O)c1c(C)oc2nc(C)nc(NCCc3ccc(OC)c(OC)c3)c12 -11%
COC(=O)c1sc(N2C(=O)c3oc4ccc(C)cc4c(=O)c3C2c2ccc(O)c(OC)c2)nc1C (stereo unspecified) -14%
CCCCC(CC)CNC(=O)CCCCn1c(=O)[nH]c2ccsc2c1=O (stereo unspecified) -14.3%
COC(=O)c1ccc(C(=O)OC)c(NC(=O)c2c(-c3ccccc3)noc2C)c1 -32.5%
COc1ccc(CCNc2nc(SCc3ccccc3F)nc3ccccc23)cc1OC -2.81%
CCC(=O)N1CCc2cc(CNS(=O)(=O)c3ccc(C(C)C)cc3)ccc21 -30.6%
CC(=Cc1ccccc1)C=C1SC(=S)N(CC(=O)O)C1=O 19.5%
Cc1nn(-c2ccccc2)c2sc(C(=O)Nc3cccc(Cl)c3)cc12 -28.3%
CCOC(=O)c1c(NC(=O)/C=C/c2ccc(OCC)cc2)sc(C(C)=O)c1C -0.84%
COc1cc2nc(NCCc3ccccc3)n3nc(-c4cccnc4)nc3c2cc1OC -14.6%
Cc1ccc(C)c(N2CCN(C(=O)CCS(=O)(=O)c3cc(Br)cc4c3N(C(=O)C3CC3)CC4)CC2)c1 -19.4%
COc1cc(NC(=O)CCc2c(C)nc3c(-c4ccc(F)cc4)c(C)nn3c2C)cc(OC)c1OC -7.56%
COc1ccc(CNC(=O)C(Cc2ccccc2)NS(=O)(=O)c2ccc3c(c2)CCN3C(C)=O)cc1 (stereo unspecified) -9.12%
CCCSc1ncc(Cl)c(C(=O)N2CCN(c3cccc(Cl)c3)CC2)n1 -40.9%
CCOc1ccc(NC(=O)CC2C(=O)N(c3ccc(OC)cc3)C(=O)N2C2CCCCC2)cc1 (stereo unspecified) -12.4%
CCOc1ccc(NC(=O)CC2C(=O)N(c3ccccc3)C(=O)N2C2CCCC2)cc1 (stereo unspecified) -14.4%
